Measured values taken from PubChem BioAssay AID624417 (National Center for Advancing Translational Sciences (NCATS), 2012).
Out of some 410,000 compounds screened, about 6,400 (1.6%) were called active. This list was built around the results that the source calls inconclusive (neither active nor inactive); the mix of calls is not that of the screen. Calls follow the shape of the dose curve; as a rule, active = well fitted inhibition curve with a large enough effect; inconclusive = small, poorly fitted or top-dose-only effect; inactive = no such curve, though single readings can be large or run the other way. Potencies of inconclusive entries are left out as doubtful fits.

molecular target: Glucagon-like peptide 1 receptor (Homo sapiens) (UniProt P43220); assay: qHTS of GLP-1 Receptor Inverse Agonists (Inhibition Mode); details: HEK293 GLP-1R CRE-luciferase, luminescence, 24 h, GLP-1R form is constitutively active; activity change, negative = inhibition: at 38.3 µM (top of the series) unless noted; also: nearly all actives have a fitted effect of over 55% in size
Chain of UniProt P43220 (P43220 whole entry, looked up): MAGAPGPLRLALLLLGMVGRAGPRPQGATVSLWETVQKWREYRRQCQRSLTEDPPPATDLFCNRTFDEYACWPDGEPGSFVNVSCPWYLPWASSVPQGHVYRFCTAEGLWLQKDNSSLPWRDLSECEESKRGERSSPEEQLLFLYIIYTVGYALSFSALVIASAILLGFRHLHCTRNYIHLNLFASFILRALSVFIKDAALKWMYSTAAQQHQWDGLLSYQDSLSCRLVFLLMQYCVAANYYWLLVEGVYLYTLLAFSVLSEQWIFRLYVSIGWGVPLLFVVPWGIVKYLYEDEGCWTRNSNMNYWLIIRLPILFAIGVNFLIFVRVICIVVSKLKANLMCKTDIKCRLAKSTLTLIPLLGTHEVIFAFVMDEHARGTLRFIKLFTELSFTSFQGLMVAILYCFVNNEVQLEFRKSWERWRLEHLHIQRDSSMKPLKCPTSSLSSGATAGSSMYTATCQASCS
In short: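 Luminescence readout: a drop in cAMP-driven luciferase signal flags inverse agonism at a constitutively active GLP-1R stably expressed in HEK293. Compound exposure lasted 24 hr at 37 deg C, 5% CO2.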
% is scaled to controls: 0 for no effect and ±100 for the full control effect; potency is read from the fitted curve at half-maximal effect; tags tell the direction and shape of the fitted curve.

SMILES | Potency | activity change, negative = inhibition
CCC(c1nc2ccccc2[nH]1)n1c(-c2cccnc2)nc2ccccc21 (configuration not stated) | inconclusive [inhibitor, partial curve, poor fit] | 
CC1(C)OC(=O)C2=C(C[C@@H](CCc3ccccc3)O[C@@H]2c2ccc(F)cc2)O1 | inconclusive [inhibitor, single point] | 
COc1ccc(C(=O)NCC(c2cccs2)N2CCc3ccccc32)cc1OC (configuration not stated) | inconclusive [inhibitor, single point] | 
CC(=O)c1nn(-c2ccc(Br)cc2)cc1C(=O)c1ccco1 | inconclusive [inhibitor, single point] | 
Cc1ccc(NC(=O)c2ccc(-c3ccccc3)s2)cc1 | inactive | 
CCOC(=O)C1(Cc2ccccc2C)CCCN(C(=O)c2ccc(OC)o2)C1 (configuration not stated) | inconclusive [inhibitor, single point] | 
CCS(=O)(=O)c1ccc2oc(Nc3ccc(C(C)C)cc3)nc2c1 | inconclusive [inhibitor, full curve, poor fit] | 
Cc1ccc(OCC(=O)N/N=C2\CC(=O)CC(C)(C)C2)c(Br)c1 |  | inconclusive: -41.8% [inhibitor]
COc1ccc(OC)c(NC(=O)c2nnn(CC(=O)Nc3ccc(C(C)C)cc3)c2N)c1 | inconclusive [inhibitor, single point] | 
CCCCc1cc2ccccc2c(OCCN(C)C)n1 | inconclusive [inhibitor, single point] | 
CCCc1c(-c2ccc(Cl)cc2)ncn1Cc1ccccc1OC | inconclusive [inhibitor, partial curve, poor fit] | 
COc1ccccc1-c1noc2ncnc(Nc3cccc(C)c3)c12 | inconclusive [inhibitor, partial curve, poor fit] | 
O=C(CC1CCCCC1)Nc1ccccc1-c1ccccc1 | inconclusive [inhibitor, partial curve] | 
O=C(COc1ccc(Br)cc1Cl)NC1CCN(Cc2ccccc2)CC1 | inconclusive [inhibitor, partial curve, poor fit] | 
O=C(NCCC1CCCCN1S(=O)(=O)c1ccccc1)C(=O)NCc1ccc(F)cc1 (configuration not stated) | inconclusive [inhibitor, partial curve, poor fit] | 
C[C@@H]1CN([C@H](C)CO)C(=O)c2c(c3ccccc3n2C)-c2ccccc2CO[C@@H]1CN(C)S(=O)(=O)c1cccs1 | inconclusive [inhibitor, single point] | 
C/C(=N/Nc1nc(-c2ccccc2)c(CC(=O)O)s1)c1ccccc1 | inconclusive [inhibitor, partial curve] | 
Cc1ccc(C)c(Cn2nnc(C(=O)Nc3ccc4c(c3)OCCO4)c2N)c1 | inconclusive [inhibitor, partial curve, poor fit] | 
COc1ccc(Cl)cc1NC(=O)CN(C)C(=O)CSc1ccc2c(c1)OCCO2 | inconclusive [inhibitor, single point] | 
CCn1c2ccccc2c2cc(C3C(C#N)=C(C)NC(C)=C3C#N)ccc21 | inconclusive [inhibitor, single point] | 
CCOCCCNCc1cccc(OC)c1 | inactive | 

SMILES | Potency | activity change, negative = inhibition
COC(=O)c1cc(OC)c(OC)cc1NC(=O)CCC1CCCC1 | inconclusive [inhibitor, single point] | 
c1ccc(-c2noc(CSc3nnc(Cc4cccs4)n3-c3ccccc3)n2)cc1 | inconclusive [inhibitor, partial curve, poor fit] | 
CN(C)CCNC(=O)C(=O)Nc1ccc2c(c1)N(S(=O)(=O)c1cccs1)CCC2 | inconclusive [inhibitor, partial curve, poor fit] | 
O=C(/C=C/c1ccncc1)c1ccc(NC(=O)c2ccccc2F)cc1 | inconclusive [inhibitor, full curve, poor fit] | 
CC(=O)Nc1nc2ccccc2n1CCOc1ccccc1Cl | inconclusive [inhibitor, single point] | 
Fc1cccc(NCCc2c[nH]c3ccccc23)n1 | inconclusive [inhibitor, single point] | 
CN(Cc1ccccc1)C(=O)c1ccc(CSc2nc3cccnc3n2Cc2ccccc2)cc1 | inactive | 
Cc1cc(NC(=O)c2cccc(COc3ccc(Br)cc3)c2)no1 | active: 1 µM | 
Cc1cccc(C(=O)Oc2csc(=S)n2C(=O)c2cccc(C)c2)c1 | inactive | 
C=CCC[C@@H](Cc1ccc(F)cc1)C(=O)OC[C@H](Cc1c[nH]c2ccccc12)NC(=O)[C@@H](CC=C)CC(=O)NCCO | inconclusive [inhibitor, single point] | 
CC(C)CN(CC(C)C)C(=O)CCCC(=O)N(CC(C)C)CC(C)C | inconclusive [inhibitor, partial curve, poor fit] | 
CCOC(=O)C1(CCCc2ccccc2)CCN(S(=O)(=O)N(C)C)CC1 | inconclusive [inhibitor, single point] | 
CC(=O)c1ccc2c(c1)c1ccccc1n2CC(C)C | inconclusive [inhibitor, partial curve, poor fit] | 
O=C1/C(=C\c2ccc(O)c(O)c2)SC(=S)N1Cc1ccccc1 | inconclusive [inhibitor, partial curve, poor fit] | 
Cc1ccccc1C(OCCN(C(C)C)C(C)C)c1ccccc1 (configuration not stated) | inconclusive [inhibitor, single point] | 
CN(C)c1nc(Nc2ccc(F)cc2)nc(Oc2ccc(F)cc2)n1 | inconclusive [inhibitor, full curve] | 
OCc1cnc(SCc2ccccc2)n1Cc1ccccc1 | inconclusive [inhibitor, single point] | 
CC(C)C[C@H](NC(=O)N1CCn2c1nc1ccccc12)C(=O)NCCc1ccccc1 | inconclusive [inhibitor, partial curve, poor fit] | 
O=C(c1cc(Cl)nc2ccccc12)N(Cc1nnc(-c2ccccc2Cl)o1)C1CC1 | inconclusive [inhibitor, single point] | 
Cc1nn(Cc2cccc(C(=O)NCC(C)C)c2)c(C)c1Br | inconclusive [inhibitor, single point] | 
CCCc1nn2c(=O)cc(COC(=O)c3ccc4c(c3)OCO4)nc2s1 | inactive | 

SMILES | Potency | activity change, negative = inhibition
Cc1nnc(NC(=O)c2sc3nc(-c4cccs4)cc(C(F)(F)F)c3c2N)s1 | inconclusive [inhibitor, partial curve, poor fit] | 
Cc1ccc(C)c(NC(=O)c2oc(=O)c3ccccc3c2-c2ccccc2)c1 | inconclusive [inhibitor, single point] | 
COc1ccc2[nH]c3c(=O)n(/N=C/[C@H]4C(C)C=C(C)CC4C)c(=O)[nH]c3c2c1 (some centres not stated) | inconclusive [inhibitor, single point] | 
C/C(=N/Nc1ncc(C(F)(F)F)cc1Cl)c1ccncc1 | inconclusive [inhibitor, single point] | 
Cc1cc(C(=O)CN2C(=O)NC3(CCCCC3C)C2=O)c(C)n1Cc1cccs1 (configuration not stated) | inconclusive [inhibitor, single point] | 
O=C(NCCO)c1ccc(-c2nnc(Nc3ccc(OC(F)(F)Cl)cc3)c3ccccc23)cc1 | inconclusive [inhibitor, single point] | 
Cc1cccc(NC(=O)COC(=O)c2cccs2)c1C | inactive | 
CCOC(=O)N1CCC(N2C(=O)c3ccccc3C2Nc2ccc(C)cc2)CC1 (configuration not stated) | inconclusive [inhibitor, partial curve, poor fit] | 
COc1ccc(CN2C(=O)CSCC2=O)cc1OC | inactive | 
CCC(C)(C)n1nnnc1C(c1ccc(Cl)cc1)N1CCN(C)CC1 (configuration not stated) | inconclusive [inhibitor, single point] | 
Cn1nc(C(F)(F)F)c(-c2ccc(F)cc2)c1NC(=O)Nc1ccc(F)cc1 | inconclusive [inhibitor, partial curve, poor fit] | 
CC(=O)Nc1cc(-c2ccccc2N(C)C)cn2c(-c3ccccc3)cnc12 | inconclusive [inhibitor, single point] | 
Cn1c(NCCCO)nc2c1c(=O)n(Cc1cccc(F)c1)c(=O)n2C | inactive | 
CCOC(=O)c1c(NC(=O)CSc2nnc(C)s2)sc2c1CCCCC2 | inconclusive [inhibitor, single point] | 
O=C(CCc1ccc(S(=O)(=O)NC2CCCCC2)cc1)NCc1ccc(Cl)cc1 | inconclusive [inhibitor, partial curve, poor fit] | 
COc1ccc(Cl)cc1NC(=O)CN(C)C(=O)CN1C(=O)NC(C)(c2ccc3ccccc3c2)C1=O (configuration not stated) | inconclusive [inhibitor, single point] | 
OCC1OC(n2cnc3c(NCc4ccccc4O)ncnc32)C(O)C1O (configuration not stated) | inconclusive [inhibitor, partial curve, poor fit] | 
FC(F)(F)Oc1ccc(NC(=S)Nc2ccc(OC(F)(F)F)cc2)cc1 | inconclusive [inhibitor, single point] | 
CCn1c(CSCc2ccc(F)cc2)nnc1SCC(=O)NCc1ccccc1 | inconclusive [inhibitor, partial curve, poor fit] | 
Cc1cccc(C(=O)Nc2ccc3c(c2)C(=O)N(CC(C)C)C3=O)c1 | inconclusive [inhibitor, full curve, poor fit] | 
